22 compounds from the supplement of paper PMC7238544 can be followed below.

SMILES strings stand for the structures. Where a name gives a salt, the structure may show the parent alone. ± gives the standard deviation of the averaged measurements. This is one part of the list.

Details in all cases: priming compound concentration 100 µM
Test [1] has as its system hAMSC donor 1. Briefly: Hoechst total cell count ratio vs vehicle control; higher = more cells (less toxicity).
Test [2] relates to hAMSC donor 2. Described as above.
For test [3], the system named is hAMSC donor 1. Briefly: transgenic luciferase activity (RLU/mg protein) fold change vs vehicle control (ratio); higher = more transgene expression.
Test [4] has as its system hAMSC donor 2. The description is as above.
In test [5] the test system is hAMSC donor 1. Kind of test: transfection efficiency (EGFP+ cells / Hoechst count) fold change vs vehicle control (ratio); hAMSC are human adipose-derived mesenchymal stem cells given an EGFP-luciferase plasmid by lipofection; higher = enhanced transfection.
In test [6] the test system is hAMSC donor 2. The description is as above.
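For Hoechst total cell count ratio vs vehicle control in this document: compound added 30 min before Lipofectamine 3000 lipoplex delivery, triplicate-well means expressed against DMSO vehicle control wells of the same 96-well plate.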
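For transfection efficiency (EGFP+ cells / Hoechst count) fold change vs vehicle control in this document: compounds added 30 min before Lipofectamine 3000 lipoplex transfection, triplicate means relative to DMSO vehicle wells on the same plate, luciferase RLU normalized to BCA total protein.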
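For transgenic luciferase activity (RLU/mg protein) fold change vs vehicle control in this document: compounds in DMSO added 30 min before Lipofectamine 3000 transfection of pEGFP-Luc in 96-well plates, values are means of triplicate wells over DMSO vehicle wells on the same plate.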

For the compound `CC1=C(CC(=O)O)c2cc(F)ccc2/C1=C\c1ccc([S+](C)[O-])cc1` (configuration not stated) [Sulindac], the entries for the “Hoechst total cell count ratio” value in test [1] and in test [2] were 1.58 ± 0.095 and 1.54 ± 0.032, respectively. The transgenic luciferase activity in test [3] is 0.595 ± 0.42; in test [4], 0.576 ± 0.32. In addition, the transfection efficiency in test [5] came to 0.694 ± 0.14; in test [6], 0.682 ± 0.26.

`CC[C@H](C)C(=O)O[C@H]1CCC=C2C=C[C@H](C)[C@H](CC[C@@H]3C[C@@H](O)CC(=O)O3)[C@H]21` [Mevastatin]: the “Hoechst total cell count ratio” value came to 0.657 ± 0.019 in test [1] and 0.521 ± 0.058 in test [2]. The transgenic luciferase activity was 0.339 ± 0.17 in test [3] and 0.403 ± 0.092 in test [4]. Further, the transfection efficiency in test [5] was 3.21 ± 0.6; in test [6] it was 1.17 ± 0.27.

With `CN(C)[C@@H]1C(O)=C(C(N)=O)C(=O)[C@@]2(O)C(O)=C3C(=O)c4c(O)cccc4[C@@](C)(O)[C@H]3C[C@@H]12` [Tetracycline], the results for the “Hoechst total cell count ratio” value in test [1] and in test [2] were 1.55 ± 0.065 and 2.5 ± 0.18, respectively. Besides, the transgenic luciferase activity in test [3] came to 0.696 ± 0.23; in test [4], 0.369 ± 0.19. Also, the values for the transfection efficiency in test [5] and in test [6] were 0.329 ± 0.046 and 0.232 ± 0.044, respectively.

In the case of `O=C1CN(/N=C/c2ccc([N+](=O)[O-])o2)C(=O)N1` [Nitrofurantoin], the “Hoechst total cell count ratio” value in test [1] is 1.24 ± 0.38; in test [2], 1.11 ± 0.38. Moreover, the figures for the transgenic luciferase activity in test [3] and in test [4] were 0.745 ± 0.5 and 0.307 ± 0.067, respectively. The transfection efficiency in test [5] amounted to 1.48 ± 0.52; in test [6], 0.879 ± 0.12.

As for `CCCc1cc(=O)[nH]c(=S)[nH]1` [Propylthiouracil], the “Hoechst total cell count ratio” value is 0.946 ± 0.06 in test [1] and 1.17 ± 0.085 in test [2]. The transgenic luciferase activity in test [3] is 0.789 ± 0.96; in test [4], 0.337 ± 0.061. Also, the transfection efficiency in test [5] was found to be 0.97 ± 0.12; in test [6] it was 1.13 ± 0.1.

As to `CCCCC[C@H](O)/C=C/[C@H]1[C@H](O)CC(=O)[C@@H]1CCCCCCC(=O)O` [Prostaglandin E1], the results for the “Hoechst total cell count ratio” value in test [1] and in test [2] were 1.28 ± 0.064 and 1.64 ± 0.1, respectively. The transgenic luciferase activity in test [3] stood at 4.69 ± 0.64; in test [4], 2.31 ± 0.8. The transfection efficiency is 1.09 ± 0.23 in test [5] and 1.05 ± 0.14 in test [6].

Turning to `CCN1CCCC1CNC(=O)c1cc(S(=O)(=O)CC)c(N)cc1OC` (configuration not stated) [Amisulpride], the figures for the “Hoechst total cell count ratio” value in test [1] and in test [2] were 1.25 ± 0.21 and 1.37 ± 0.038, respectively. The transgenic luciferase activity in test [3] was determined as 0.86 ± 0.13; in test [4], 0.826 ± 0.27. For the same compound, the transfection efficiency is 0.744 ± 0.1 in test [5] and 0.985 ± 0.2 in test [6].

Regarding `O=C(O)c1cc(-c2ccc(F)cc2F)ccc1O` [Diflunisal], the “Hoechst total cell count ratio” value in test [1] and in test [2] was 1.11 ± 0.14 throughout. Moreover, the transgenic luciferase activity was found to be 1.04 ± 0.17 in test [3] and 0.915 ± 0.064 in test [4]. Besides, the transfection efficiency in test [5] amounted to 0.835 ± 0.11; in test [6], 1.27 ± 0.22.

As for `COc1cc(C(=O)NS(=O)(=O)c2ccccc2C)ccc1Cc1cn(C)c2ccc(NC(=O)OC3CCCC3)cc12` [Zafirlukast], the entries for the “Hoechst total cell count ratio” value in test [1] and in test [2] were 1.5 ± 0.066 and 1.7 ± 0.27, respectively. The transgenic luciferase activity stood at 0.285 ± 0.021 in test [3] and 0.684 ± 0.034 in test [4]. Moreover, the transfection efficiency in test [5] was found to be 0.558 ± 0.041; in test [6], 0.321 ± 0.1.

As to `O=C(O)CCc1nc(-c2ccccc2)c(-c2ccccc2)o1` [Oxaprozin], the “Hoechst total cell count ratio” value in test [1] amounted to 1.21 ± 0.046; in test [2], 1.13 ± 0.07. Also, the transgenic luciferase activity in test [3] turned out to be 1.65 ± 0.34; in test [4], 1.02 ± 0.53. Besides, the transfection efficiency came to 1.18 ± 0.17 in test [5] and 0.778 ± 0.22 in test [6].

Consider `CCOC(=O)C1=C(C)NC(C)=C(C(=O)OC)C1c1cccc([N+](=O)[O-])c1` (configuration not stated) [Nitrendipine], for which the “Hoechst total cell count ratio” value worked out at 0.624 ± 0.079 in test [1] and 0.731 ± 0.17 in test [2]. Moreover, the transgenic luciferase activity in test [3] stood at 2.06 ± 0.8; in test [4] it was 0.681 ± 0.51. The transfection efficiency in test [5] was 2.13 ± 0.19; in test [6], 0.899 ± 0.24.

Turning to `CCCNC(=O)NS(=O)(=O)c1ccc(Cl)cc1` [Chlorpropamide], the “Hoechst total cell count ratio” value in test [1] came to 1.21 ± 0.066; in test [2], 1.39 ± 0.18. Besides, the transgenic luciferase activity in test [3] worked out at 0.985 ± 0.33; in test [4], 1.16 ± 0.29. In addition, the results for the transfection efficiency in test [5] and in test [6] were 0.907 ± 0.19 and 1.54 ± 0.29, respectively.

On to `CC[C@]1(O)C[C@H]2CN(CCc3c([nH]c4ccccc34)[C@@](C(=O)OC)(c3cc4c(cc3OC)N(C=O)[C@H]3[C@@](O)(C(=O)OC)[C@H](OC(C)=O)[C@]5(CC)C=CCN6CC[C@]43[C@@H]65)C2)C1` [Vincristine sulfate], for which the “Hoechst total cell count ratio” value is 0.621 ± 0.094 in test [1] and 1.47 ± 0.075 in test [2]. Further, the transgenic luciferase activity in test [3] is 4.21 ± 1.1; in test [4], 1.1 ± 0.5. Also, the transfection efficiency in test [5] is 1.26 ± 0.52; in test [6], 0.966 ± 0.26.

Turning to `O=C(O)COCCN1CCN([C@H](c2ccccc2)c2ccc(Cl)cc2)CC1` [Levocetirizine], the figures for the “Hoechst total cell count ratio” value in test [1] and in test [2] were 1.55 ± 0.081 and 0.999 ± 0.095, respectively. For the same compound, the transgenic luciferase activity in test [3] turned out to be 1.11 ± 0.45; in test [4], 0.791 ± 0.39. Further, the transfection efficiency in test [5] came to 0.637 ± 0.14; in test [6] it was 1.22 ± 0.23.

Regarding `C=C1/C(=C\C=C2/CCC[C@]3(C)[C@@H]([C@H](C)CCCC(C)(C)O)CC[C@@H]23)C[C@@H](O)C[C@@H]1O` [Calcitriol], the “Hoechst total cell count ratio” value in test [1] was 0.734 ± 0.081; in test [2], 0.742 ± 0.1. For the same compound, the transgenic luciferase activity turned out to be 0.575 ± 0.24 in test [3] and 2.03 ± 0.42 in test [4]. In addition, the transfection efficiency in test [5] was 0.884 ± 0.28; in test [6], 0.994 ± 0.16.

As for `Cn1cnc([N+](=O)[O-])c1Sc1ncnc2[nH]cnc12` [Azathioprine], the figures for the “Hoechst total cell count ratio” value in test [1] and in test [2] were 0.789 ± 0.065 and 1.38 ± 0.3, respectively. Besides, the transgenic luciferase activity was 0.892 ± 0.18 in test [3] and 1.49 ± 0.6 in test [4]. For the same compound, the transfection efficiency in test [5] came out at 2.01 ± 0.46; in test [6] it was 0.944 ± 0.21.

Consider `CCOC(=O)[C@@]1(CCCCCCOc2ccc(Cl)cc2)CO1` [Etomoxir], for which the “Hoechst total cell count ratio” value in test [1] came out at 1.39 ± 0.22; in test [2] it was 2.28 ± 0.063. In addition, the transgenic luciferase activity was determined as 0.675 ± 0.33 in test [3] and 0.161 ± 0.12 in test [4]. The transfection efficiency in test [5] worked out at 0.776 ± 0.18; in test [6] it was 0.588 ± 0.018.

`CC(C)(S)C(N)C(=O)O` (racemic) [DL-Penicillamine]: the figures for the “Hoechst total cell count ratio” value in test [1] and in test [2] were 1.3 ± 0.061 and 1.52 ± 0.082, respectively. Further, the transgenic luciferase activity is 0.627 ± 0.35 in test [3] and 0.707 ± 0.088 in test [4]. The transfection efficiency in test [5] was determined as 0.828 ± 0.42; in test [6], 0.855 ± 0.039.

As to `COc1ccc2cc([C@H](C)C(=O)O)ccc2c1` [Naproxen sodium], the “Hoechst total cell count ratio” value came to 1.47 ± 0.17 in test [1] and 0.834 ± 0.12 in test [2]. For the same compound, the transgenic luciferase activity in test [3] came out at 1.34 ± 0.32; in test [4], 0.371 ± 0.071. The transfection efficiency in test [5] amounted to 0.623 ± 0.052; in test [6], 1 ± 0.21.

Consider `N[C@@H]1CONC1=O` [D-Cycloserine], for which the “Hoechst total cell count ratio” value came out at 1.14 ± 0.12 in test [1] and 1.23 ± 0.12 in test [2]. Moreover, the transgenic luciferase activity in test [3] worked out at 0.802 ± 0.17; in test [4], 0.646 ± 0.18. Further, the figures for the transfection efficiency in test [5] and in test [6] were 1.37 ± 0.16 and 0.859 ± 0.041, respectively.

With `COc1cc(/C=C/c2ccc(O)cc2)cc(OC)c1` [Pterostilbene], the “Hoechst total cell count ratio” value in test [1] is 0.93 ± 0.015; in test [2], 0.574 ± 0.14. Also, the transgenic luciferase activity was determined as 0.982 ± 0.14 in test [3] and 2.23 ± 0.091 in test [4]. Moreover, the transfection efficiency in test [5] is 2.68 ± 0.68; in test [6], 1.6 ± 0.29.

For the compound `COc1ccc2c3c1O[C@H]1C[C@@H](O)C=C[C@@]31CCN(C)C2` [Galanthamine hydrobromide], the results for the “Hoechst total cell count ratio” value in test [1] and in test [2] were 1.47 ± 0.25 and 1 ± 0.1, respectively. The figures for the transgenic luciferase activity in test [3] and in test [4] were 0.0845 ± 0.047 and 0.53 ± 0.19, respectively. For the same compound, the transfection efficiency came out at 0.443 ± 0.12 in test [5] and 0.573 ± 0.13 in test [6].
